Among all 48,000 compounds or so, about 550 (1.1%) were called active. About 4% were inconclusive and are not listed. No stated cut-off is given here; in the data, active means potency below about 15 µM; inconclusive means mostly about 16 µM to 33 µM; inactive means weaker than that. This is one part of the list.
Biological target: Lysosomal acid glucosylceramidase (Homo sapiens) (UniProt P04062)
Experiment: Glucocerebrosidase;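 further: the screen sought inhibitors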
Conditions: purified enzyme, resorufin glucoside fluorescence (screen aimed at inhibitors), 20 min
Method in brief: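 Wild-type enzyme at 0.2 nM final in 50mM citric acid/KH2PO4, 10mM sodium taurocholate, 0.01% tween-20, pH 5.9, with resorufin beta-D-glucopyranoside at 30 uM final. Compounds titrated, 20 min at RT, red fluorescence read; AC50 from titration.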
Potency means the concentration at half of the fitted maximal effect.

UniProt P04062, sequence (P04062 whole entry, looked up): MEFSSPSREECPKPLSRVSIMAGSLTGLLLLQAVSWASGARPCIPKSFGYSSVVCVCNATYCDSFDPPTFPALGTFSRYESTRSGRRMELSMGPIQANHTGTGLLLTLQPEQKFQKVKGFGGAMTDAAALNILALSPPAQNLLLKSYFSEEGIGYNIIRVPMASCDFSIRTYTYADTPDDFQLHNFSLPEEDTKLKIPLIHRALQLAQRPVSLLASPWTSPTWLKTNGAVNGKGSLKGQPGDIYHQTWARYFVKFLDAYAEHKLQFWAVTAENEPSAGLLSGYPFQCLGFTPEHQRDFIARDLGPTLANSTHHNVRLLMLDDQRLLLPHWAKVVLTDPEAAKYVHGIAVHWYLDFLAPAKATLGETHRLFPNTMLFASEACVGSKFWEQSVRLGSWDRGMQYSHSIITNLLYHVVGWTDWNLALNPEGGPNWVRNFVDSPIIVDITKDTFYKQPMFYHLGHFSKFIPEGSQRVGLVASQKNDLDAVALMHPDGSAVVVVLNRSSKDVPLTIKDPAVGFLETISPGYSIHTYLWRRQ

Compound	Potency
Cc1ccc(C(=O)CC2(O)C(=O)N(CCc3ccccc3)c3ccc(Br)cc32)o1 (centres undefined)	inactive: > 76.9 µM
CCOc1ccc(C(=O)CSc2nnc(N)s2)cc1	inactive: > 76.9 µM
CC(=O)Nc1ccc2c(c1)CCC2=O	inactive: > 76.9 µM
CCOC(=O)c1c(C)[nH]c(NC(=O)N2CCOCC2)c1C	inactive: > 76.9 µM
Cc1ccc(-c2ccc(=O)n(CC(=O)NCCN3C(C)CCCC3C)n2)cc1 (centres undefined)	inactive: > 76.9 µM
Cc1nc2cc(N3CCCCC3)c(NC(=O)c3cccnc3)cc2c(=O)n1Cc1ccccc1	inactive: > 76.9 µM
CC(=O)c1cnc(N2CCCCC2)nc1C	inactive: > 76.9 µM
CCc1ccc2[nH]c(=O)c(CN(CCCN3CCOCC3)C(=O)Nc3ccc(F)cc3)cc2c1	inactive: > 76.9 µM
COc1ccc(CCNc2oc(-c3ccc(OC)c(OC)c3)nc2C#N)cc1	inactive: > 76.9 µM
Cc1ccc2ncnc(NCCCN3CCOCC3)c2c1	inactive: > 76.9 µM
O=C(NCc1cccnc1)NC1CCCN1S(=O)(=O)c1ccc(Cl)cc1 (centres undefined)	inactive: > 76.9 µM
CCNc1nc(N)nc(Oc2ccc(OCCOc3ccccc3)nn2)n1	inactive: > 76.9 µM
COC(=O)c1ccccc1NC(=O)Nc1cc(C)cc(C)n1	inactive: > 76.9 µM
Cc1cccc(N2CCN(C(=O)c3ccncc3)CC2C)c1 (centres undefined)	inactive: > 76.9 µM
CN(C)c1nccc(Nc2ccccc2)c1C#N	inactive: > 76.9 µM
CCCCCOC(=O)c1ccccc1C(=O)O	inactive: > 76.9 µM
O=C(C1CCC1)N1CCc2cc(S(=O)(=O)NCc3cccnc3)ccc21	inactive: > 76.9 µM
COCCNC(=O)c1noc2c1CCc1cc(OC)ccc1-2	inactive: > 76.9 µM
O=S(=O)(c1ccc(S(=O)(=O)N2CCCN(Cc3ccccc3)C2)cc1)N1CCCCCC1	inactive: > 76.9 µM
COc1cc(C)nc(NS(=O)(=O)c2ccccc2)n1	inactive: > 76.9 µM
O=C(c1ccccc1)c1cncc(Br)c1	inactive: > 76.9 µM
COc1ccccc1OCCOCCn1cnc2ccccc2c1=O	inactive: > 76.9 µM
CCN(Cc1cc2ccccc2[nH]c1=O)C(=O)C1CCCCC1	inactive: > 76.9 µM
CCCn1c(Nc2nc3ccccc3n2C)nc2ccccc21	inactive: > 76.9 µM

Compound	Potency
CCC1Oc2ccccc2N(CC(=O)Nc2ccccc2OC)C1=O (centres undefined)	inactive: > 76.9 µM
COC(=O)C1(C)NC(c2cccs2)C2C(=O)N(c3ccc(F)cc3)C(=O)C21 (centres undefined)	inactive: > 76.9 µM
O=C(CCN1C(=O)C2C3C=CC(C3)C2C1=O)NC1CCCc2ccccc21 (centres undefined)	inactive: > 76.9 µM
O=C(Cn1cnc2ccccc2c1=O)Nc1ccc(-c2nnc3n2CCCCC3)cc1	inactive: > 76.9 µM
CC(C)CNS(=O)(=O)c1ccc(CCC(=O)O)cc1	inactive: > 76.9 µM
CC(C)(C)c1ccc(-c2noc(CCC(N)=O)n2)cc1	inactive: > 76.9 µM
CCCOc1ccc(N2C(=O)CC(NCc3ccncc3)C2=O)cc1 (centres undefined)	inactive: > 76.9 µM
CCOC(=O)C1CCN(C(=O)C2c3ccccc3C(=O)N(C)C2c2ccc(OC)cc2)CC1 (centres undefined)	inactive: > 76.9 µM
COc1ccccc1-c1nnc2sc(COc3ccc(F)cc3)nn12	inactive: > 76.9 µM
C=C1N(CCCCCC(=O)O)C(=O)OC12CCCCC2	inactive: > 76.9 µM
COC(=O)Cc1[nH]nc2c1C1(C(=O)N(Cc3ccccc3)c3ccccc31)C(C#N)=C(N)O2 (centres undefined)	inactive: > 76.9 µM
CCc1cc(=O)oc2cc(OC(C)=O)cc(OC(C)=O)c12	inactive: > 76.9 µM
Cc1nn(-c2ccccc2)c(C)c1NC(=O)c1cccs1	inactive: > 76.9 µM
O=C(Nc1ccc2c(c1)CCC2)c1cnccn1	inactive: > 76.9 µM
CCCCC(CC)Cn1c2nc3ccccc3nc2c2c(=N)oc(C)nc21 (centres undefined)	inactive: > 76.9 µM
CC(NC(=O)Cc1ccsc1)c1ccc(S(N)(=O)=O)cc1 (centres undefined)	inactive: > 76.9 µM
COc1c(F)c(F)c(C(=O)Nc2ccc(NC(=O)c3ccco3)cc2)c(F)c1F	active: 1.52 µM
Cc1[nH]c2ccccc2c1C(=O)COC(=O)C1CC(=O)N(Cc2ccco2)C1 (centres undefined)	inactive: > 76.9 µM
Cc1cccc(Cn2c(SCCO)nc3c2c(=O)n(C)c(=O)n3C)c1	inactive: > 76.9 µM
Cc1ccc(NC(=O)C2CCN(C(=O)NC3CCCCC3)CC2)cc1Cl	inactive: > 76.9 µM
Cc1cccc(-c2noc(CCC(=O)NCc3ccccc3)n2)c1	inactive: > 76.9 µM
CCOc1ccccc1NC(=O)CC1Nc2ccccc2NC1=O (centres undefined)	inactive: > 76.9 µM
O=C(CSC1=NCCS1)Nc1ccccc1F	inactive: > 76.9 µM
CN(CC(=O)Nc1ccncc1)S(=O)(=O)c1ccc(Cl)cc1	inactive

Compound	Potency
Cc1cc(C)n(-c2nc3ccccc3nc2N2CCN(C(=O)c3ccccc3)CC2)n1	inactive: > 76.9 µM
NC(=O)c1c(N)sc(=S)n1CC1CCCO1 (centres undefined)	inactive: > 76.9 µM
COc1cccc(C(=O)CSc2nnnn2C)c1	inactive: > 76.9 µM
CC(=O)NCC(=O)NC(C(=O)Nc1ccc2c(c1)OCCO2)c1ccccc1 (centres undefined)	inactive: > 76.9 µM
COC(=O)c1cc(Oc2ccc(C(=O)OC)cc2N)cc(C(=O)OC)c1	inactive: > 76.9 µM
O=C(O)CSC12CC3CC(C1)CC(C(=O)O)(C3)C2	inactive: > 76.9 µM
Cc1ccc(S(=O)(=O)CCSc2nc(C)cc(C)c2C#N)cc1	inactive: > 76.9 µM
O=C(COc1ccc(S(=O)(=O)NC2CCCC2)cc1)N1CCCCCC1	inactive: > 76.9 µM
CN(C)CCCN1C(=O)C(O)=C(C(=O)c2cccs2)C1c1ccccn1 (centres undefined)	inactive: > 76.9 µM
CS(=O)(=O)N(CC(=O)O)c1cccc(Cl)c1	inactive: > 76.9 µM
COCCN1Cc2cccc(C(=O)Nc3cc(OC)ccc3OC)c2C1=O	inactive: > 76.9 µM
O=c1cc(Cn2ccnc2)c2cc3c(cc2o1)CCC3	inactive
COc1ccc2cc3cc(C(=O)NCC4COc5ccccc5O4)oc3nc2c1 (centres undefined)	inactive: > 76.9 µM
O=C(NCCCCNC(=O)c1cccnc1)c1cccnc1	inactive: > 76.9 µM
Cc1ccc2nc3c(cc(C(N)=S)c(=N)n3CCCOC(C)C)c(=O)n2c1	inactive: > 76.9 µM
COCCCN1C(=O)C(=O)/C(=C(/O)c2ccc(OC(C)C)cc2)C1c1cccnc1 (centres undefined)	inactive: > 76.9 µM
CCn1c(SCC(=O)Nc2nc3c(s2)CCCC3)nc2c1c(=O)n(C)c(=O)n2C	inactive: > 76.9 µM
O=C(CN1C(=O)NC2(CCCCC2)C1=O)Nc1ccccc1Cl	inactive: > 76.9 µM
CCN(CC)C(=O)Oc1ccc2c(=O)c(-c3ccc(OC)cc3)c(C)oc2c1	inactive: > 76.9 µM
Cc1cccn2c(=O)c3cc(C#N)c(=O)n(CCCN4CCOCC4)c3nc12	inactive: > 76.9 µM
Cc1cc(C)c2c(CN3CCN(Cc4ccc5c(c4)OCO5)CC3)cc(=O)oc2c1C	inactive: > 76.9 µM
CCOC(=O)Cc1csc(NC(=O)CS(=O)(=O)Cc2ccccc2)n1	inactive: > 76.9 µM
O=C(CCc1nc(-c2ccccc2F)no1)NCCN1CCc2ccccc2C1	inactive: > 76.9 µM
Cc1nn2c3c(cnc2c1-c1ccccc1)C(=O)CCC3	inactive: > 76.9 µM

Compound	Potency
O=C(NCCCN1CCCCCC1)c1ccc(N2CCCC2=O)cc1	inactive: > 76.9 µM
CC(C)(C)c1ccc(C(=O)N2CCC(C(=O)NCC3CCCO3)CC2)cc1 (centres undefined)	inactive: > 76.9 µM
CC(SC1CCCC1)C(=O)NC(C)(C#N)C(C)C (centres undefined)	inactive: > 76.9 µM
CC(=O)NCCn1c(SCC(=O)NCCC2=CCCCC2)nc2ccccc2c1=O	inactive: > 76.9 µM
Nc1cc(C(=O)N2CCCC2)cc(C(=O)N2CCCC2)c1	inactive: > 76.9 µM
O=C(NCc1cccnc1)c1cccc(NC(=O)c2ccco2)c1	inactive: > 76.9 µM
c1ccc2c(c1)CCCC2NC1=NCCC1 (centres undefined)	inactive: > 76.9 µM
O=C(O)c1ccc(NC(=O)C2CCCCC2)cc1	inactive: > 76.9 µM
Cc1ccc(-n2c(C)nc3c(cnn3-c3ccc(F)cc3)c2=O)cc1C	inactive: > 76.9 µM
CC1C(=O)C(C)C(c2cccs2)NC1c1cccs1 (centres undefined)	inactive: > 76.9 µM
CCC(NS(=O)(=O)c1ccc(C)cc1)C(=O)O (centres undefined)	inactive: > 76.9 µM
Oc1ccc(-c2csc(NCc3ccco3)n2)cc1	inactive
CCCCn1c(SCC(=O)Nc2nnc(CC)s2)nc2ccccc2c1=O	inactive: > 76.9 µM
CC(C)Nc1nc(C#N)nc(NC(C)C)n1	inactive: > 76.9 µM
C=CCN1C(=O)C2C(C(=O)NC)C3C=CC2(O3)C1C(=O)NCc1ccc(OC)cc1 (centres undefined)	inactive: > 76.9 µM
COc1ccc(CCC(=O)N2CCc3ccccc32)cc1	inactive: > 76.9 µM
CCOC(=O)c1[nH]c(C)c(/C=N/O)c1C	inactive: > 76.9 µM
c1ccc(OCc2nn3c(-c4ccncc4)nnc3s2)cc1	inactive: > 76.9 µM
O=c1c2[nH]c3ccccc3c2ncn1CCCn1ccnc1	inactive: > 76.9 µM
O=C1Nc2cc(Cl)ccc2C1(N1CCNCC1)C(F)(F)F (centres undefined)	inactive: > 76.9 µM
COc1ccc2[nH]c(=O)c(CN(Cc3ccco3)C(=O)c3ccccc3)cc2c1	inactive: > 76.9 µM
CCOC(=O)c1[nH]c(C)c(C(=O)N(C)C)c1C	inactive: > 76.9 µM

Reference: PubChem BioAssay AID360 (National Center for Advancing Translational Sciences (NCATS), 2006)
